Experimental data as given in PubChem BioAssay AID1347120 (National Center for Advancing Translational Sciences (NCATS), 2019).
Hit rate of the full screen: of about 390,000 compounds, about 930 (0.24%) were called active. Inconclusive results, whose numbers are uncertain, are shown with a selection of clear calls. The call rests on the fitted dose curve; in most records, active means well fitted activation curve with a large enough effect; inconclusive means small, poorly fitted or top-dose-only effect; inactive means no such curve, though single readings can be large or run the other way. Potencies beside an inconclusive call are fits to weak or partial responses and may not hold up.

Assay: qHTS for Suppressors of FUS Proteinopathy: Primary screen using FUS-linked yeast assay; further: nearly all actives have a fitted effect of over 55% in size;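 on growth rescue (activation): plate controls were DMSO vehicle for no effect and reference control for full effect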
Conditions: S. cerevisiae FUS-expressing, OD600, 24 h; Potency: growth rescue; growth rescue (activation): at 76.6 µM (top of the series)
Summary of the method: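 Yeast FUS proteinopathy model; galactose-induced FUS (2%), starting OD 0.005. Cpds in dilution series, 24hr, 30C, 99% humidity. Abs 600 nm growth. Pos ctrl CP55940 (top 92uM final); neg ctrl DMSO.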
Potency means the concentration at half of the fitted maximal effect; tags describe the fitted curve by direction and shape.

Compound	Potency	growth rescue (activation)
CCc1ccc(N(CC(=O)NC(C)(C)CC)C(=O)CCC(=O)Nc2nccs2)cc1	inconclusive: 35.5 µM [activator, single point]	–
Cc1ccccc1C(=O)c1cccn1CC(=O)NCCN1CCN(c2cccc(C)c2C)CC1	inconclusive: 31.6 µM [activator, single point]	–
C#CCOCCOCCOCCNc1nc(N2CCN(C(=O)CCCCCCCCCCNC(=O)Cn3cc(C[C@@H](C)O)nn3)CC2)nc(N2CCN(C(=O)CCCCCCCCCCNC(=O)[C@H](CCCN=C(N)N)n3cc(C[C@@H](C)CC)nn3)CC2)n1	active: 11.2 µM	–
COc1ncc(-c2ccc(N3C(c4ccsc4)=Cc4ccccc4C3CC(C)=O)cc2)cn1 (stereo not drawn)	inconclusive: 50.1 µM [activator, single point]	–
O=C(CSc1nc2ccccc2c(=O)n1-c1ccc(Cl)cc1)NNC(=S)Nc1ccccc1	–	inactive: 6.83%
CC(SCc1ccccc1)C(=O)Nc1ccccc1-c1ccccc1 (stereo not drawn)	active: 17.8 µM	–
COc1ccc(N2CCN(S(=O)(=O)c3ccc4c(c3)N(C(C)=O)CCO4)CC2)cc1	inconclusive: 31.6 µM [activator, partial curve, poor fit]	–
COc1ccc(S(=O)(=O)N(C)C[C@H]2Oc3ccc(NC(=O)NC4CCCCC4)cc3C(=O)N([C@H](C)CO)C[C@@H]2C)cc1	inconclusive: 22.4 µM [activator, single point]	–
O=C(OCc1cn([C@@H]2CN(CC3CCCCC3)[C@@H](c3ccc(Cl)cc3)C[C@H]2O)nn1)c1ccccc1	–	inactive: -2.13%
Cc1cc(Cn2nc(-c3ccccc3)cc2C(=O)NCc2cccs2)on1	inconclusive: 11.2 µM [activator, partial curve, poor fit]	–
COC(=O)[C@]12C[C@H](CC(=O)NCc3ccc(C)o3)C(=O)N(CCC3=CCCCC3)C1=C[C@H](C(C)C)O[C@@H]2C1CC1	inconclusive: 28.2 µM [activator, single point]	–
O=C(Cn1c(SCCOc2ccccc2Cl)nc2ccccc21)N1CCCCC1	inconclusive: 25.1 µM [activator, single point]	–
COC(=O)C1CN(C(=O)COc2ccc(Cl)cc2Cl)c2ccccc2O1 (stereo not drawn)	inconclusive: 50.1 µM [activator, single point]	–
CSc1ccccc1NC(=O)C1CC(c2ccccc2Cl)=NO1 (stereo not drawn)	–	inactive: -2.1%
COc1cc(/C=C(\C#N)c2nc3ccccc3[nH]2)c([N+](=O)[O-])cc1OCc1ccccc1	inconclusive: 14.1 µM [activator, partial curve]	–
O=C(OCc1cn([C@@H]2CN(Cc3cccs3)[C@@H](c3ccc(Cl)cc3)C[C@H]2O)nn1)c1ccccc1	inconclusive: 12.6 µM [activator, partial curve]	–
CCc1ccc2c(CC(=O)Nc3cccc(S(=O)(=O)N4CCOCC4)c3)coc2c1	inconclusive: 31.6 µM [activator, partial curve]	–
O=C(NNC(=O)c1cc(-c2ccc(Cl)cc2)nc2ccccc12)c1csc(N2CCOCC2)n1	inconclusive: 44.7 µM [activator, partial curve, poor fit]	–
COC(=O)[C@]12C[C@H](CC(=O)NCc3ccc(C)o3)C(=O)N(CCc3ccc(OC)c(OC)c3)C1=C[C@H](C(C)(C)C)O[C@@H]2C	inconclusive: 25.1 µM [activator, partial curve]	–

Compound	Potency	growth rescue (activation)
CCCN(C(=O)NCc1noc2ccc(C)cc12)c1ccc(Cl)c(Cl)c1	inconclusive: 25.1 µM [activator, single point]	–
CCCCOc1cccc(-c2nnc(N)s2)c1	inconclusive: 2.51 µM [activator, full curve]	–
Cc1cccc(OC[C@@H](O)CN2CCC(C(O)(c3ccccc3)c3ccccc3)CC2)c1	–	inactive: 15.9%
O=S(=O)(c1ccccc1)N1CCC2(CC1)OCCN2S(=O)(=O)c1cccs1	–	inactive: 6.57%
Cc1cc(C2=NNC(=NCCc3ccccc3)SC2)c(C)n1CC1CCCO1 (stereo not drawn)	inconclusive: 50.1 µM [activator, single point]	–
COc1cccc(CN(C)C(=O)/C=C/c2ccc(S(=O)(=O)N3CCCCCC3)cc2)c1	inconclusive: 35.5 µM [activator, partial curve, poor fit]	–
CCCn1c2ccccc2c2cnn(CC(=O)NCCc3cc(OC)ccc3OC)c(=O)c21	inconclusive: 25.1 µM [activator, single point]	–
COc1ccc(CNC(=O)C(C)OC(=O)c2cccn2C)cc1 (stereo not drawn)	–	inactive: -1.71%
O=C(Cn1ncc2c1-c1ccccc1OC2)Nc1nc2ccccc2s1	–	inactive: -1.15%
COc1ncc(-c2c(-c3ccccc3OC)sc3ccccc23)cn1	inconclusive: 50.1 µM [activator, single point]	–
CN(C)CCNC(=O)c1cccc(-c2cnc3c(NC=O)cc(/C=C/c4ccccc4)cn23)c1	inconclusive: 35.5 µM [activator, single point]	–
NNc1nc(N)c2c(n1)-c1ccccc1CC21CCCC1	inconclusive: 44.7 µM [activator, partial curve, poor fit]	–
CCn1c(C)nc2cc(C(=O)NNC(=O)c3ccc(C)cc3)ccc21	–	inactive: 6.25%
O=C1NC[C@H](CCCCN2C[C@H](Cc3ccccc3)N(CCC3CCCCC3)C(=O)C2=O)N(CCc2ccc(O)cc2)C1=O	inconclusive: 12.6 µM [activator, partial curve, poor fit]	–
COc1cccc([C@H]2Nc3ccc(S(=O)(=O)Nc4cc(C)ccc4C)cc3[C@H]3C=CC[C@H]32)c1	inconclusive: 50.1 µM [activator, single point]	–
COCCC(=O)N1CCC(Oc2ccc(C(=O)N(C)CCCC3CCCC3)cc2)CC1	inconclusive: 5.62 µM [activator, full curve]	–
COc1ccc(S(=O)(=O)Cc2ccc(C(=O)N3CCN(c4ccccc4F)CC3)o2)cc1	inconclusive: 8.91 µM [activator, partial curve]	–
COc1cnc(-c2ccccn2)nc1Oc1ccc(Cl)cc1	–	inconclusive: 97.6% [activator]
CCN1C(=O)[C@H]2[C@@H](c3ccc(SC4CCCCC4)c(OC)c3)N[C@@](Cc3ccccc3)(C(=O)OC)[C@H]2C1=O	–	inactive: 26.7%
